Test results from the supplement of paper PMC8728848.
The other results are listed elsewhere or left out.

Columns and labels:
Test in all cases: glycan array binding signal (z-score within array); higher = stronger binding
Settings in all cases: glycan notation: IUPAC condensed, linker removed
Gal3S(b1-4)Glc6S = molecular target: Gal3S(b1-4)Glc6S
In short: (§1)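 Arrays were curated from the Consortium for Functional Glycomics database, 3228 in total, and kept only where the protein sequence was available. Binding is expressed as a within-array Z-score. This score was averaged across arrays of the same protein sequence at different concentrations or buffers and across linkers, and negative values can be read as non-binding.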

Gal3S(b1-4)GlcNAc = molecular target: Gal3S(b1-4)GlcNAc
In short: as §1

[1] = molecular target: Gal3S(b1-4)[Fuc(a1-3)]Glc6S
In short: as §1

[2] = molecular target: Gal3S(b1-4)[Fuc(a1-3)]GlcNAc
In short: as §1

[3] = molecular target: Gal3S(b1-4)[Fuc(a1-3)]GlcNAc6S
In short: as §1

Gal3S4S(b1-4)GlcNAc = molecular target: Gal3S4S(b1-4)GlcNAc
In short: as §1

Gal3S6S(b1-4)GlcNAc = molecular target: Gal3S6S(b1-4)GlcNAc
In short: as §1

Gal3S6S(b1-4)GlcNAc6S = molecular target: Gal3S6S(b1-4)GlcNAc6S
In short: as §1

Gal4S(b1-4)GlcNAc = molecular target: Gal4S(b1-4)GlcNAc
In short: as §1

Gal4S6S(b1-4)GlcNAc = molecular target: Gal4S6S(b1-4)GlcNAc
In short: as §1

Gal6P(b1-4)GlcNAc = molecular target: Gal6P(b1-4)GlcNAc
In short: as §1

Gal6S(b1-3)GlcNAc = molecular target: Gal6S(b1-3)GlcNAc
In short: as §1

Gal6S(b1-3)GlcNAc6S = molecular target: Gal6S(b1-3)GlcNAc6S
In short: as §1

Gal6S(b1-4)Glc = molecular target: Gal6S(b1-4)Glc
In short: as §1

Gal6S(b1-4)Glc6S = molecular target: Gal6S(b1-4)Glc6S
In short: as §1

Gal6S(b1-4)GlcNAc = molecular target: Gal6S(b1-4)GlcNAc
In short: as §1

Gal6S(b1-4)GlcNAc6S = molecular target: Gal6S(b1-4)GlcNAc6S
In short: as §1

GalNAc(a1-3)Gal = molecular target: GalNAc(a1-3)Gal
In short: as §1

GalNAc(a1-3)GalNAc = molecular target: GalNAc(a1-3)GalNAc
In short: as §1

[4] = molecular target: GalNAc(a1-3)GalNAc(a1-3)Gal(a1-4)Gal(b1-4)GlcNAc
In short: as §1

[5] = molecular target: GalNAc(a1-3)GalNAc(b1-3)Gal(a1-4)Gal(b1-4)Glc
In short: as §1

GalNAc(b1-3)Gal = molecular target: GalNAc(b1-3)Gal
In short: as §1

[6] = molecular target: GalNAc(b1-3)Gal(a1-4)Gal(b1-4)GlcNAc
In short: as §1

[7] = molecular target: GalNAc(b1-3)Gal(a1-4)Gal(b1-4)GlcNAc(b1-3)Gal(b1-4)Glc
In short: as §1

[8] = molecular target: GalNAc(b1-3)Gal(a1-6)Gal(b1-4)Glc
In short: as §1

GalNAc(b1-3)GalNAc = molecular target: GalNAc(b1-3)GalNAc
In short: as §1

GalNAc(b1-3)GlcNAc = molecular target: GalNAc(b1-3)GlcNAc
In short: as §1

GalNAc(b1-4)Gal(b1-4)Glc = molecular target: GalNAc(b1-4)Gal(b1-4)Glc
In short: as §1

GalNAc(b1-4)GlcNAc = molecular target: GalNAc(b1-4)GlcNAc
In short: as §1

[9] = molecular target: GalNAc(b1-4)GlcNAc(b1-2)Man
In short: as §1

B1: Blon2468mut (Bifidobacterium longum) (protein)
chain: MTFIKQMMPRYVASMTAGIVAAAMAATCAFAPVANADAVSPTQETIQSTGRHFMVYYRAWRDVTMKGVNTDLPDDNWISMYDIPYGVDVVNIFSYVPSGQEEQAQPFYDKLKSDYAPYLHSRGIKLVRGIDYTGVAVNGFRTFMKEQNKTESEATEADYDAYAKQVIDKYMISVGLDGLDIDMQAHPNDADVKISDNVIRALSKHIGPKSAKPDTTMFLYDTNGSYLNPFKNVAECFDYVAYQQYGSSSDRTARAAADYQPYIGNEFVPGLTFPEEGDMNNRWYDATEPYEESHFYQVASYVREHNLGGMFVYALDRDGRNYDEDLRRIVPSNLLWTKTAIAESEGMALDTAKTAANHYLDRMSLRQVIDDNAASADKARDMVGKAANLYETNKAVLGGDYGEGFSNTYDPTLEAGLLGIDISVLQQQIDKSSEIIGADTAESDAKTALRMARDAAIDGLTGKIYTADQVSAWSQALKAALDATVPVPTPDSTDQNGNRDKVTNHKVQGQPKQLSATGISTDIIVAVGVTLAIAGVALSLSRKLS
Gal3S(b1-4)Glc6S
  glycan array binding signal (z-score): -0.05
Gal3S(b1-4)GlcNAc
  glycan array binding signal (z-score): -0.03
[1]
  glycan array binding signal (z-score): 0.006
[2]
  glycan array binding signal (z-score): -0.008
[3]
  glycan array binding signal (z-score): -0.03
Gal3S4S(b1-4)GlcNAc
  glycan array binding signal (z-score): -0.083
Gal3S6S(b1-4)GlcNAc
  glycan array binding signal (z-score): -0.057
Gal3S6S(b1-4)GlcNAc6S
  glycan array binding signal (z-score): -0.011
Gal4S(b1-4)GlcNAc
  glycan array binding signal (z-score): -0.043
Gal4S6S(b1-4)GlcNAc
  glycan array binding signal (z-score): -0.05
Gal6P(b1-4)GlcNAc
  glycan array binding signal (z-score): -0.066
Gal6S(b1-3)GlcNAc
  glycan array binding signal (z-score): -0.06
Gal6S(b1-3)GlcNAc6S
  glycan array binding signal (z-score): -0.063
Gal6S(b1-4)Glc
  glycan array binding signal (z-score): -0.063
Gal6S(b1-4)Glc6S
  glycan array binding signal (z-score): -0.004
Gal6S(b1-4)GlcNAc
  glycan array binding signal (z-score): -0.085
Gal6S(b1-4)GlcNAc6S
  glycan array binding signal (z-score): -0.072
GalNAc(a1-3)Gal
  glycan array binding signal (z-score): -0.062
GalNAc(a1-3)GalNAc
  glycan array binding signal (z-score): -0.043
[4]
  glycan array binding signal (z-score): -0.093
[5]
  glycan array binding signal (z-score): -0.077
GalNAc(b1-3)Gal
  glycan array binding signal (z-score): -0.063
[6]
  glycan array binding signal (z-score): -0.032
[7]
  glycan array binding signal (z-score): -0.089
[8]
  glycan array binding signal (z-score): -0.083
GalNAc(b1-3)GalNAc
  glycan array binding signal (z-score): -0.043
GalNAc(b1-3)GlcNAc
  glycan array binding signal (z-score): -0.05
GalNAc(b1-4)Gal(b1-4)Glc
  glycan array binding signal (z-score): -0.037
GalNAc(b1-4)GlcNAc
  glycan array binding signal (z-score): -0.008
[9]
  glycan array binding signal (z-score): -0.049
